Reference: PubChem BioAssay AID360 (National Center for Advancing Translational Sciences (NCATS), 2006)
Out of some 48,000 compounds screened, about 550 (1.1%) were called active. Roughly 4% stayed inconclusive and do not appear here. Rule as the data show it: active = potency below about 15 µM; inconclusive = mostly about 16 µM to 33 µM; inactive = weaker than that. Some of the results follow.

target: Lysosomal acid glucosylceramidase (Homo sapiens) (UniProt P04062); test: Glucocerebrosidase; conditions: purified enzyme, resorufin glucoside fluorescence (screen aimed at inhibitors), 20 min;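 also: the screen sought inhibitors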
Method in brief: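 Wild-type enzyme at 0.2 nM final in 50mM citric acid/KH2PO4, 10mM sodium taurocholate, 0.01% tween-20, pH 5.9, with resorufin beta-D-glucopyranoside at 30 uM final. Compounds titrated, 20 min at RT, red fluorescence read; AC50 from titration.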
Potency is read from the fitted curve at half-maximal effect.

Chain of UniProt P04062 (P04062 whole entry, looked up): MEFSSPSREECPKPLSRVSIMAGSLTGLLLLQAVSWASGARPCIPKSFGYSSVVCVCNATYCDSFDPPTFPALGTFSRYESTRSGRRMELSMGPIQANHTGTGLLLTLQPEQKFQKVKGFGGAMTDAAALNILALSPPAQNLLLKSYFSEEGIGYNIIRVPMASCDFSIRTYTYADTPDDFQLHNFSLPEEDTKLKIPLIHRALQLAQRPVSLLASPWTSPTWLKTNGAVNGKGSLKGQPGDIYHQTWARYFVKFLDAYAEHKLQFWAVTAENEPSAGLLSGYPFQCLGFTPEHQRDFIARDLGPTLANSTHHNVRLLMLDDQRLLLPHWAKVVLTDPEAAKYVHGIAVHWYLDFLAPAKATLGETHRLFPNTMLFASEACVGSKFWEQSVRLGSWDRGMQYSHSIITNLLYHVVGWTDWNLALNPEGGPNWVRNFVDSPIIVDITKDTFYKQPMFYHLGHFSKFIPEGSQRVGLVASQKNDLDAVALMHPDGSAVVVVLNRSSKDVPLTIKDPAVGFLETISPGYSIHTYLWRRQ

Potency, inactive:
CCOC(=O)CCn1c(CC(=O)OCC)nc2ccccc21 > 76.9 µM, CSc1nnc2c(n1)OC(C)=Nc1ccccc1-2 > 76.9 µM, COc1ccc(Cc2nn3c(-c4ccccc4OC)nnc3s2)cc1 > 76.9 µM, Cc1ccc2nc(-c3ccc4c(c3)OCCO4)cc(C(=O)O)c2c1 > 76.9 µM, COc1ccc(Cn2nnnc2CN2CCc3ccccc32)cc1 > 76.9 µM, Cc1cc(=O)n(C)c(=O)n1CCCNc1ccccc1 > 76.9 µM, Cc1ccc(S(=O)(=O)NCCCN(C)C)cc1 > 76.9 µM, CCOC(=O)C1CCCN(C(=O)CN2CCN(Cc3ccc(Cl)cc3)C2=O)C1 (centres undefined) > 76.9 µM, CCCCn1c(N2CCC(Cc3ccccc3)CC2)nc2c1c(=O)[nH]c(=O)n2C > 76.9 µM, O=C(CN1C(=O)c2cccc3cccc1c23)NCc1cccnc1 > 76.9 µM, Cc1ccc(N=C2NC(=O)CS2)c(C)c1 > 76.9 µM, CN(C(=O)COC(=O)COc1ccc(Cl)cc1)C1CCCCC1 > 76.9 µM, O=C(COc1ccc(-c2nnco2)cc1)NC1CCCc2ccccc21 (centres undefined) > 76.9 µM, CC(C)n1c2ccccc2c2nc3ccccc3nc21 > 76.9 µM, Cn1c(SCC(N)=O)nnc1C1CCN(S(=O)(=O)c2ccccc2C(F)(F)F)CC1 > 76.9 µM, COc1ccc(CCNC(=O)c2nnn(CC(=O)Nc3ccccc3C)c2N)cc1OC > 76.9 µM, CCOC(=O)c1ccc(NC(=O)CN2CCc3ccccc3C2)cc1 > 76.9 µM, CCOc1ccc(-n2c(SCC(N)=O)nc3c(c2=O)SCC3)cc1 > 76.9 µM, COc1ccc(-c2noc(CCC(=O)Nc3cc(OC)ccc3OC)n2)cc1 > 76.9 µM, NCCCCCNC(=O)/C=N\O > 76.9 µM, Cc1ccc2c(c1)-c1cc(C)nn1C(c1ccc3c(c1)OCO3)N2 (centres undefined) > 76.9 µM, O=C(Nc1cc(=O)[nH]c2ncnn12)c1ccccc1Cl > 76.9 µM, Cc1ccn2cc(C(=O)Nc3ccccc3N3CCOCC3)nc2c1 > 76.9 µM, CS(=O)(=O)N(CCc1ccccc1)CC(=O)N1CCN(Cc2ccc3c(c2)OCO3)CC1 > 76.9 µM, COCCNC(=O)C(c1ccc(C)o1)N(Cc1ccc(F)cc1)C(=O)Cn1nnc2ccccc21 (centres undefined) > 76.9 µM, N#C/C(=C(/O)CN1CCOCC1)c1nc2ccccc2s1 > 76.9 µM, Cc1ccc2c(CNCc3ccco3)cc(=O)oc2c1 > 76.9 µM, O=C(CCCc1cccs1)N1CCN(S(=O)(=O)c2ccccc2Br)CC1 > 76.9 µM, c1ccc2c(c1)c1c3n2CCNC3CCC1 (centres undefined) > 76.9 µM, Cc1ccc2oc(=O)n(CCCOc3ccccc3)c2c1 > 76.9 µM, Cc1cc(C)c2c(n1)nn1c(N3CCN(c4ccccn4)CC3)cc(C)nc21 > 76.9 µM, Cc1cccn2c(=O)c3cc(C(=O)N4CCCc5ccccc54)n(C)c3nc12 > 76.9 µM, COc1ccc(-c2ccc(SCC(=O)NCc3ccco3)nn2)cc1OC > 76.9 µM, COc1cccc2[nH]c3c(N4CCC(C(N)=O)CC4)ncnc3c12 > 76.9 µM, COc1ccc(Cn2nnnc2C(c2cc3cc(C)cc(C)c3[nH]c2=O)N2CCOCC2)cc1 (centres undefined) > 76.9 µM, Cc1ccc2c(c1)nnn2C1CCN(S(C)(=O)=O)CC1 > 76.9 µM, Cc1sc2nc(CSc3nc4ccccc4c(=O)n3CCCN3CCOCC3)[nH]c(=O)c2c1C > 76.9 µM, CCOC(=O)C(NC(=O)CC)(Nc1ccccc1OC)C(F)(F)F (centres undefined) > 76.9 µM, COc1ccccc1CC(NC(C)=O)C(=O)N1CCN(C(=O)Nc2ccccc2Cl)CC1 (centres undefined) > 76.9 µM, Fc1ccc(F)c(CN2CCN(c3ncccn3)CC2)c1 > 76.9 µM, CCn1c(SCC(=O)Nc2nc3ccccc3s2)nnc1-c1ccc(OC)cc1 > 76.9 µM, CC1CCN(S(=O)(=O)c2ccc3[nH]c(=O)c(=O)[nH]c3c2)CC1, Cc1cccc(N=C2NC(=O)CS2)c1 > 76.9 µM, COCCCN1CC23C=CC(O2)C(C(=O)OC)C3C1=O (centres undefined) > 76.9 µM, c1cc(-c2noc(CC3CCCCC3)n2)ccn1 > 76.9 µM, Clc1cccc(CSc2nnc(-c3ccccn3)n2Cc2ccco2)c1, CC(C)(C)c1n[nH]c(=S)n(N)c1=O > 76.9 µM, CCOc1ccc(N(C)S(=O)(=O)c2ccc3[nH]cc(C(=O)NCC4CCCO4)c(=O)c3c2)cc1 (centres undefined) > 76.9 µM, Cc1ccc(NC(=O)CCn2nc(C)cc2C)c(C)c1 > 76.9 µM, O=C(CCN1CCN(CC(=O)Nc2ccccc2Cl)CC1)Nc1ccccc1F > 76.9 µM, CC1CN(C2CCCCC2)c2nc3c(c(=O)[nH]c(=O)n3C)n2C1 (centres undefined) > 76.9 µM, CCOC(=O)c1cnc2scnn2c1=O > 76.9 µM, CN(C)S(=O)(=O)N1CCN(CC(O)COc2ccc3cc(Br)ccc3c2)CC1 (centres undefined) > 76.9 µM, Cc1cc(C(=O)OCC(=O)NC2CCS(=O)(=O)C2)c(C)n1-c1ccccc1 (centres undefined) > 76.9 µM, CC12CCC(C(=O)Nc3cccc(NC(=O)C45CCC(C)(C(=O)O4)C5(C)C)n3)(OC1=O)C2(C)C > 76.9 µM, COc1ccccc1C(=O)NC(CCSC)C(=O)NCC(c1ccco1)N(C)C (centres undefined) > 76.9 µM, Clc1ccc(CN2C3=NCCN3c3ccccc32)cc1 > 76.9 µM, Fc1cccc(F)c1CN1CCN(c2ncccn2)CC1 > 76.9 µM, Nc1nc2n(c1C(=O)c1ccccc1)CCC2 > 76.9 µM
